Measured values published in patent publication CN114790245A (CHENGDU KANGHONG BIOLOGICAL TECH CO LTD, dated 2022).
Residue numbers refer to the chain shown, from its start. Values belong to the binder of their own block, whether it stands above or below them.

Molecular target: 血浆激肽释放酶(plasma kallikrein,PK) (human, UniProt P03952 20-638)
Assay: cell-based or functional assay

Chain of UniProt P03952 (P03952 20-638 limits assumed): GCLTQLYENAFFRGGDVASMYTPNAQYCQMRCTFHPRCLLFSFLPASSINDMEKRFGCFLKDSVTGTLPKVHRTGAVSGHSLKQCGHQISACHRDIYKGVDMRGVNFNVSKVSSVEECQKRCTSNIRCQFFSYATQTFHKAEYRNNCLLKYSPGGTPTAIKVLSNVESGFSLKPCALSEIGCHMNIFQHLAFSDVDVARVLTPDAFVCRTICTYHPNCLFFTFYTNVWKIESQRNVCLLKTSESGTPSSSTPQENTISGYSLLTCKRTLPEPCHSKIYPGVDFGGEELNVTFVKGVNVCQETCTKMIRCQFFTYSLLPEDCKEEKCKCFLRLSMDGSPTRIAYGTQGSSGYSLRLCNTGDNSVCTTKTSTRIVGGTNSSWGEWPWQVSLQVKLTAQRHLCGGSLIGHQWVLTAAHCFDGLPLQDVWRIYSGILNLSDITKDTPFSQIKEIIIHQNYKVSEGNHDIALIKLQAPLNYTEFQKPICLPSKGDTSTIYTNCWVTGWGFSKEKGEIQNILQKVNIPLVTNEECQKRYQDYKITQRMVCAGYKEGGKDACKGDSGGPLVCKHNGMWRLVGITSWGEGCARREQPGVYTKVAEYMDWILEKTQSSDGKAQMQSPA

IC50(nM), PK activity in human plasma activated with Factor XIIa (H-Pro-Phe-Arg-AMC): 0.918 nM
B1: KH06 (antibody, human IgG4 S228P, kappa)
heavy: EVQLQQSGAELVKPGASVRLSCTASGFNIKDTYIFWVKQRPKQGLEWIGRIDPENDNTKYDPKIQGKATLTADTSSNTAYLQLSSLTSEDSAIYYCAKGGGLFAYWGQGTLVSVSAASTKGPSVFPLAPCSRSTSESTAALGCLVKDYFPEPVTVSWNSGALTSGVHTFPAVLQSSGLYSLSSVVTVPSSSLGTKTYTCNVDHKPSNTKVDKRV[letters of human IgG4 Fc with S228P (EU numbers) not shown]
light: DIQMTQSPSSLSASVGDRVTITCEASHDINNYIAWYQQKPGKAPKLLIYYTSTLQSGVPSRFSGSGSGTDFTFTISSLQPEDIATYYCLQYDNLFTFGQGTKVEIKRTVAAPSVFIFPPSDEQLKSGTASVVCLLNNFYPREAKVQWKVDNALQSGNSQESVTEQDSKDSTYSLSSTLTLSKADYEKHKVYACEVTHQGLSSPVTKSFNRGEC

IC50(nM), PK activity in human plasma activated with Factor XIIa (H-Pro-Phe-Arg-AMC): 0.578 nM
B2: KH08 (antibody, human IgG4 S228P, kappa)
heavy: B1 heavy
light: B1 light with S10A, L11M
